Results from PubChem BioAssay AID588689 (Southern Research Specialized Biocontainment Screening …, 2011).
Screen size: about 340,000 compounds; about 1,000 (0.29%) were called active. This list was built around the results that the source calls inconclusive (neither active nor inactive); the mix of calls is not that of the screen. Cut-off read from the data, not from the text of the source: inconclusive = inhibition above about 29% without an active follow-up result; inactive = below that.

biological target: Genome polyprotein (Dengue virus type 2 (strain 16681-PDK53)) (UniProt P29991); experiment: Dengue-2 NS5 methyltransferase inhibitors, primary screen, biochemical, confirmation dose response (AID 588689); conditions: Dengue-2 NS5 methyltransferase capping enzyme assay, at 25 µM, stronger effect = higher value
Chain of UniProt P29991 (P29991 whole entry, looked up): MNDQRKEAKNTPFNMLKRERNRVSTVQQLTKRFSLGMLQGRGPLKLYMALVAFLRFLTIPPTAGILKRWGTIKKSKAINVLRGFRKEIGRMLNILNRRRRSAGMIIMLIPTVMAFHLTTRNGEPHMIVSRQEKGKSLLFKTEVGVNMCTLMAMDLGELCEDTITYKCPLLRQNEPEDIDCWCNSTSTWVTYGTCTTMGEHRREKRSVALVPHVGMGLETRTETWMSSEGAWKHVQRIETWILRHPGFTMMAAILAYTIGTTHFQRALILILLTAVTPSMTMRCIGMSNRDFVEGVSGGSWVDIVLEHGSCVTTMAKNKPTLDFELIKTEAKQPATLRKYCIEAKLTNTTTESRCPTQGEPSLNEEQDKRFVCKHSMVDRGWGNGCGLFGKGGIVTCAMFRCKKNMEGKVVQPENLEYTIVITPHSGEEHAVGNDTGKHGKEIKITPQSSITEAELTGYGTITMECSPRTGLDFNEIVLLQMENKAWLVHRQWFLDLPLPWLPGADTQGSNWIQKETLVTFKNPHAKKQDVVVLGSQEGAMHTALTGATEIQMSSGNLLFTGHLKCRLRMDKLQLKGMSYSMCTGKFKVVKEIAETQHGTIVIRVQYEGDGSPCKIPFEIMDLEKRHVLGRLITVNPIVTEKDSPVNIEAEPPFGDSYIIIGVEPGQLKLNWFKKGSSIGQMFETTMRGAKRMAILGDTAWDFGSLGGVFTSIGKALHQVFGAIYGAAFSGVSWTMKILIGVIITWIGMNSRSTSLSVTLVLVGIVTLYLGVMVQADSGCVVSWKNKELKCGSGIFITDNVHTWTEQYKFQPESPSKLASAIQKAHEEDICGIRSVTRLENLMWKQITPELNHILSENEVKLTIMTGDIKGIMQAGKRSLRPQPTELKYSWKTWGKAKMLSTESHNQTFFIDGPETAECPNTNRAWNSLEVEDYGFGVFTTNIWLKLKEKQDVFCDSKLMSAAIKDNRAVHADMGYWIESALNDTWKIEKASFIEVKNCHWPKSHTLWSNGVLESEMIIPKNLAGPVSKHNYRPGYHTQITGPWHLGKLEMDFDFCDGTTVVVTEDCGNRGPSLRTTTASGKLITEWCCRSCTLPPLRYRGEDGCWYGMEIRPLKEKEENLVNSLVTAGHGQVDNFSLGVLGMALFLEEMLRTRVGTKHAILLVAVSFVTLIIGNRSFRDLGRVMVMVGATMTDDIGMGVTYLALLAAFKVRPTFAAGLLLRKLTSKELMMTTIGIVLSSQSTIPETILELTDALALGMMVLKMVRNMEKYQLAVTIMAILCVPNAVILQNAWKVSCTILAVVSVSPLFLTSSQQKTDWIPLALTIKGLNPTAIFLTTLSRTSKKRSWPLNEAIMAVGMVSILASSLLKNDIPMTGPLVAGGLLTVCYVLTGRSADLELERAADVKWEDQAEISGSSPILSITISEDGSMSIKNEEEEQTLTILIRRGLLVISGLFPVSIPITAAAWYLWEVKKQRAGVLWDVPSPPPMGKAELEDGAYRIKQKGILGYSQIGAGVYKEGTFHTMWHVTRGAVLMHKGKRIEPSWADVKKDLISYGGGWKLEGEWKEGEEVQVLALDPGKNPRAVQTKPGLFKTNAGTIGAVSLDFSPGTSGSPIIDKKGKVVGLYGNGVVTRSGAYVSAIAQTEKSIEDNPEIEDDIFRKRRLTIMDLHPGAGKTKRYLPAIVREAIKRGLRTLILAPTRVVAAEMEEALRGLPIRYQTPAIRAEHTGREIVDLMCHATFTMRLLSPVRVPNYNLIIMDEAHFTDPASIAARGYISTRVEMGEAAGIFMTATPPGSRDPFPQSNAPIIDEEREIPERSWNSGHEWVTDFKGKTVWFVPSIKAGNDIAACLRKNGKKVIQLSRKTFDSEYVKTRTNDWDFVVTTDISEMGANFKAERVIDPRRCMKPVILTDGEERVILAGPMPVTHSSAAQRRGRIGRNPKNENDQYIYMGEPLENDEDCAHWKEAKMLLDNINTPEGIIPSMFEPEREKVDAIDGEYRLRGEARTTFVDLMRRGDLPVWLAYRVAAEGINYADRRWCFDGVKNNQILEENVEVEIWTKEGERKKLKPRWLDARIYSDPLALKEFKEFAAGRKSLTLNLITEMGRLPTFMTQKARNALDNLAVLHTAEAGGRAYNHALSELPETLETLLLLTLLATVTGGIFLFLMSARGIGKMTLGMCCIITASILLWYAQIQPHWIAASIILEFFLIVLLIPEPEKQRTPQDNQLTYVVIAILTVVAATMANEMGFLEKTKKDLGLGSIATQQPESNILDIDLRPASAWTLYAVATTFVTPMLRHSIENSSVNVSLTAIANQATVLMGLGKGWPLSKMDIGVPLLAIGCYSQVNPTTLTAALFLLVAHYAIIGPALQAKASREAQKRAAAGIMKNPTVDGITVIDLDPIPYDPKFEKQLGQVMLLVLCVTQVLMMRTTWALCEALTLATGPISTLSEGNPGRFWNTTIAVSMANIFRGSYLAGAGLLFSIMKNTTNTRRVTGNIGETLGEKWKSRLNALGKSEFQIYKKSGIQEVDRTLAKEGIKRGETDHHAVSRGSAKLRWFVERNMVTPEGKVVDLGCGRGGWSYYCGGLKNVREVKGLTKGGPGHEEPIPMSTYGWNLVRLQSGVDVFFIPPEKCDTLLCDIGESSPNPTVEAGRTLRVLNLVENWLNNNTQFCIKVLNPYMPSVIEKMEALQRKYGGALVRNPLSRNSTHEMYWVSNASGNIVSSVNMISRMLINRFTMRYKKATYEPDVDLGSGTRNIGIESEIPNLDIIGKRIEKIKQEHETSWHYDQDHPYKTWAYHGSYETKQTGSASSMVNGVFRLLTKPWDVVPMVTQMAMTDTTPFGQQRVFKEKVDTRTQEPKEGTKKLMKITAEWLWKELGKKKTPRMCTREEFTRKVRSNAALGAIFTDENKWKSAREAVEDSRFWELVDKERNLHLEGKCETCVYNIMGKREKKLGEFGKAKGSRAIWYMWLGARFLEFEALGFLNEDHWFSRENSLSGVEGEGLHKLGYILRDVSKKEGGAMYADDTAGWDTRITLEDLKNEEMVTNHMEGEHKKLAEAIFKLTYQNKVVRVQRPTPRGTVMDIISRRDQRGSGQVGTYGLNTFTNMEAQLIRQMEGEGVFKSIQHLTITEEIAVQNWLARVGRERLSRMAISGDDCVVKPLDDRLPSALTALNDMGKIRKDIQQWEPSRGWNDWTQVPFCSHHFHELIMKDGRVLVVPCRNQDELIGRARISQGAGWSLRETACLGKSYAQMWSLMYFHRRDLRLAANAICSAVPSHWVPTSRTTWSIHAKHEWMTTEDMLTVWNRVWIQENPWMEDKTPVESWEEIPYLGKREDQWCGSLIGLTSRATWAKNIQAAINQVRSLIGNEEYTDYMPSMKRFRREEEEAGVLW

**Q.** `O=C(/C=C(O)/C=C/c1ccc(O)cc1)/C=C/c1ccc(O)cc1` was tested. Which inhibition did it give?
**A.** The inhibition was inconclusive: 168%.

**Q.** For `c1cc(CNc2ccc3c(c2)OCO3)ccn1`, which inhibition is on record?
**A.** The inhibition was inconclusive: 75.2%.

**Q.** Which inhibition does the source give for `CC[C@H](C)/C=C(C)/C=C/C1=CC2=CC(=O)[C@]3(C)OC(=O)[C@@H](C(C)=O)[C@@H]3C2=CO1` here?
**A.** Its inhibition is inactive: 7.68%.

**Q.** With `CSc1nncc(/C(C)=N\Nc2ccccc2)n1` as the compound, how does the inhibition read?
**A.** The inhibition was inconclusive: 36.5%.

**Q.** With `O=C1c2cccc3c(N4CCCCC4)ccc(c23)C(=O)N1CCO` as the compound, how does the inhibition read?
**A.** The inhibition was inconclusive: 168%.

**Q.** Which inhibition does the source give for `COc1cccc(/C=C2/NC(=O)N(CC(=O)Nc3ccc(C)cc3)C2=O)c1OCc1cccc(C(=O)O)c1` here?
**A.** Its inhibition is inactive: -3.96%.

**Q.** How did the inhibition turn out when `Clc1ccc(C2=CC(c3ccco3)n3ncnc3N2)cc1` (stereo not drawn) was run?
**A.** Its inhibition is inconclusive: 130%.

**Q.** `N#CC(C#N)=C1C=CC=CN1/C(=C\c1ccccc1)C(=O)c1cccs1` was tested. Which inhibition did it give?
**A.** The inhibition was inconclusive: 55.7%.

**Q.** How did the inhibition turn out when `CCOc1ccc(-c2c(C#N)c(N)nc3sc(C(=O)c4ccccc4)c(N)c23)cc1` was run?
**A.** Its inhibition is inconclusive: 85.5%.

**Q.** How did the inhibition turn out when `CCc1cc(=O)oc2c3c(cc(OCC(=O)NCCCC(=O)O)c12)OC(C)(C)CC3` was run?
**A.** The inhibition was inactive: -5.29%.

**Q.** With `COc1ccc2[nH]c3c(c2c1)CCNC3c1ccc([N+](=O)[O-])o1` (stereo not drawn) as the compound, how does the inhibition read?
**A.** The inhibition was inconclusive: 49.6%.

**Q.** How did the inhibition turn out when `COC(CNC(=O)c1cnn2c(C)c(Cc3ccccc3)c(C)nc12)OC` was run?
**A.** The inhibition was inactive: -1.46%.

**Q.** `CN1CCN(CCC=C2c3ccccc3Sc3ccc(S(=O)(=O)N(C)C)cc32)CC1` was tested. Which inhibition did it give?
**A.** Its inhibition is inconclusive: 33.7%.

**Q.** `CCN(CC)c1ccc2cc(S(=O)(=O)c3ccc(Cl)cc3)c(=O)oc2c1` was tested. Which inhibition did it give?
**A.** The inhibition was inconclusive: 153%.

**Q.** How did the inhibition turn out when `Cc1csc(SCC(=O)Nc2ccc(F)cc2Cl)n1` was run?
**A.** The inhibition was inactive: -8.4%.

**Q.** Which inhibition does the source give for `COc1cccc(/C=C2\SC(=S)N(N3CCOCC3)C2=O)c1OC` here?
**A.** Its inhibition is inactive: -5.48%.

**Q.** For `CCN(C(=O)CSc1nc2ccccc2c(=O)n1CCOC)C1CCS(=O)(=O)C1` (stereo not drawn), which inhibition is on record?
**A.** Its inhibition is inactive: 1.48%.

**Q.** How did the inhibition turn out when `O=[N+]([O-])c1ccc(Sc2cccc[n+]2[O-])c2nonc12` was run?
**A.** The inhibition was inconclusive: 140%.

**Q.** Which inhibition does the source give for `C/C=C/C=C\C(=O)Nc1cccc(C2=NOC3(C2)C[C@H](C(N)=O)N(C(=O)/C=C/C)C3)c1` (stereo partly drawn) here?
**A.** The inhibition was inactive: -9.17%.

**Q.** For `CCOc1ccc2nc3cc(N=Nc4ccc(N)nc4N)ccc3c(N)c2c1`, which inhibition is on record?
**A.** The inhibition was inconclusive: 39.2%.

**Q.** For `Cc1c(CC(=O)N[C@@H](C)C(=O)O)c(=O)oc2c(C)c3occ(-c4ccccc4)c3cc12`, which inhibition is on record?
**A.** The inhibition was inactive: -0.65%.

**Q.** With `COc1ccc(NS(=O)(=O)c2ccc(Cl)s2)cn1` as the compound, how does the inhibition read?
**A.** Its inhibition is inconclusive: 41.7%.

**Q.** How did the inhibition turn out when `COc1ccc2c(c1OC)C(=O)N1C(C(=O)O)Cc3c([nH]c4ccccc34)C21` (stereo not drawn) was run?
**A.** Its inhibition is inactive: -3.23%.
